Our source for the binding signal values is paper PMC12136788.

The chains are these.
T1: UNK ZnF1-3 (human, UniProt Q9C0B0 31-174)
T1 sequence: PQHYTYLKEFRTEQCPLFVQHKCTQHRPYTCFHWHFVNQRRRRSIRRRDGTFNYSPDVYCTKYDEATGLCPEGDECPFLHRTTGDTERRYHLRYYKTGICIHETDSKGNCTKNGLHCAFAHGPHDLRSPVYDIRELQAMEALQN

B1: chr4:17845017:17845018:+_ENSG00000109805_ENST00000514176|hu_mus|hu_hu_hu_mus_False|48_98 (ssRNA)
RNA: GGGAGUUCUACAGUCCGACGAUCGCUCUCUUAACUUGAUCUUCAUUUAAGGAACUCUGCAAGGUUAAGUUUACUUUUCUGUAGCGCGCGGUUUUGGGCUCGUCUGGGUAAUCUCAUCUUCAUUUCUGAUGGUGGUUCAUGAUCCAACAGAGGAUUGAGCAUCA
B2: 29043882_29044002_1640_3pUTR_ENSMUSG00000076431_ENSMUST00000067230|mouse|control|control (ssRNA)
RNA: GGGAGUUCUACAGUCCGACGAUCCGAGGCUGCGCGUAGGCUGGCGUAGCCGCGGUGGUCAGCGGGCGAUCGGCUGGCGGCUGGCGAUGAUGCUGCGCUGCUGCGGCCGCUCAGACUCCGGCCAUCGGGCGAGCAUCCCGGGCCCAACAGAGGAUUGAGCAUCA
B3: 62931016_62931474_2432_CDS_ENSG00000061987_ENST00000546600|human|control|control (ssRNA)
RNA: GGGAGUUCUACAGUCCGACGAUCCAAGACAAGUUGCCAUGAUGUUCCAAGAACAGCCCCAUGGCAAUGCGCCAAGUUAAGUAAAGUCCUCAUACACUGGAUAUUUUUGGAAGUCAGCAUUACUGUCCCUUGAGGCUGGACUGCCAACAGAGGAUUGAGCAUCA
B4: chr11:31958201:31958202:+_ENSMUSG00000020297_ENSMUST00000020537|mus_hu|FALSE|FALSE (ssRNA)
RNA: GGGAGUUCUACAGUCCGACGAUCCAUCUUGCAAAAUGCACCAGAGGCCAGCACAUUUCACUAUGGGUUAUGUGCGUUCUGGGCUUAGUAAUGCCAAAAUCAGCUCUUCUCUCCAGCUCGGCCAUUCCUCAUUUCCUGCGGGCCCAACAGAGGAUUGAGCAUCA
B5: chr5:145543945:145543946:-_ENSG00000133706_ENST00000545646|hu_hu|hu_hu_hu_mus_True|8_8 (ssRNA)
RNA: GGGAGUUCUACAGUCCGACGAUCCUGAACGGCCAGUGGUGGGAAAUAAUCAAGCCAGUGCUCUGCUUCAGAAAACUUCACUAUGUCGUCAUCAGAGAGCCCAAGGGAUUUCAUAAUGUCCCACUGGUAUUUAGAAGAUCCUGCCAACAGAGGAUUGAGCAUCA
B6: 70340692_70340812_512_CDS_ENSMUSG00000018286_ENSMUST00000018430|mouse|control|control (ssRNA)
RNA: GGGAGUUCUACAGUCCGACGAUCCUGCAGACAUUCGUCCUUGGUCAUGCCUUCCCGAUACGUAGCAUCAACAUAGCCAUAGAUGUACGAGCUCCCGGAGCCUCCGAUGGCAAAGGACUGUCUUACCAUCAUACCCCCCAUGGGCAACAGAGGAUUGAGCAUCA
B7: chr4:6323411:6323412:-_ENSMUSG00000028245_ENSMUST00000029910|mus_mus|motif|central (ssRNA)
RNA: GGGAGUUCUACAGUCCGACGAUCAUAUUUUUAAUGUAGAAAAGAUGAACCUUUAGUAGCAUAAUGAAAUAUAAACCAUUGCGGUACACAGUAACAGACUUAAUGUUAUUAAGAAUCUGGGCACGCAGCACUGCCGAAAGGAACCAACAGAGGAUUGAGCAUCA
B8: chr1:36394379:36394380:+_ENSG00000092847_ENST00000373204|hu_hu|FALSE|FALSE (ssRNA)
RNA: GGGAGUUCUACAGUCCGACGAUCCAGGAGCCAUCAAAUACCCAGUGCAAAAUUUCCUAAAAUAUGAUACAAAAGUAUAAACUAGAACAGAAAAAAGCAACAAACGGAGCUUUAAUAAAUUCACAAAAUUUUAAACUUUUGCUCCAACAGAGGAUUGAGCAUCA
B9: chr5:32761720:32761721:+_ENSMUSG00000014956_ENSMUST00000015100|mus_hu|FALSE|FALSE (ssRNA)
RNA: GGGAGUUCUACAGUCCGACGAUCGAGGCUGUCCACGUUCAGCUCCCCGUCCGCCAUCUUGUCGGCACAGACUCUCCUUCCCAGCAGCGGGAACAAGGGCUUCUCGGCGGCGGAGGCUGCGGCGACGGCUCGGCGUUCUCUCACCAACAGAGGAUUGAGCAUCA
B10: chr10:1038552:1038553:+_ENSG00000107937_ENST00000545048|hu_hu|motif|central (ssRNA)
RNA: GGGAGUUCUACAGUCCGACGAUCCAUAGAACGGAUGAAUAUCAUCCAAUUUGGGGAAAUCUGUUAGAAUUUGUGAAAGUCGGUCAUGGUAAUUCUGUUGAGUAAAUUUGACUUUUCUCAUGUAAAAAUGUCUAAUGCGAUGUACAACAGAGGAUUGAGCAUCA
B11: chr14:76904430:76904431:+_ENSMUSG00000022010_ENSMUST00000022587|mus_mus|mus_mus_mus_hu_True|48_68 (ssRNA)
RNA: GGGAGUUCUACAGUCCGACGAUCUGCAGCCAAAAACACCCUCGUGGAAAAAAAGAGGGAACACCAGCAGCCUGGUUUAAGCUAGAUAAAACCGCCUGGCUUUCCGCAGCCCAGGGAGAAACAGAAAACGGCAGCCCUAAUUUACAACAGAGGAUUGAGCAUCA
B12: 210416310_210416430_1989_3pUTR_ENSG00000082497_ENST00000367012|human|control|control (ssRNA)
RNA: GGGAGUUCUACAGUCCGACGAUCUGUUAAAUCCCUGCUGUAACUCUGAUUUAUCCUUAAUUUUCACAUUGGCAAAAAUUAAGAUAAAAGUAAGGCACCAAAAAUCGCCCUGUAUAACACCUCUCUAAAAGCCUCAUCACCCAUCAACAGAGGAUUGAGCAUCA
B13: chr1:66829163:66829164:+_ENSG00000184588_ENST00000423207|hu_hu|motif|central (ssRNA)
RNA: GGGAGUUCUACAGUCCGACGAUCUACAUCAGCAGCGUGCAGGCUGUUGUGAUAUGCCACGUCAGAAUGGUAAUGGUCUUCGGAAGUCAUCAUGUAGGUUAUAAAUGUGUCAGAUGAGAUUCUGAAUGUCUUUAGGAGGUCUCUCAACAGAGGAUUGAGCAUCA
B14: chr2:50987981:50987982:-_ENSMUSG00000017144_ENSMUST00000017288|mus_hu|FALSE|FALSE (ssRNA)
RNA: GGGAGUUCUACAGUCCGACGAUCGGUGGCAACGUGAAAAAUGUCUCUGACGCUAUUUUCCGACUGUAAAGCUGAGCAUUCGAUAUAAGUAGCUGCUCCAAUCUGUUUGGCCAUAUUUGCCCCCUGGUCAUAGGACACUGGCGUCAACAGAGGAUUGAGCAUCA

The other results are listed elsewhere or left out.

This assay deals with T1, UNK ZnF1-3. The assay can be described thus: nsRBNS (natural sequence RNA bind-n-seq); RBNS binding buffer (assumed for nsRBNS): 25 mM Tris pH 7.5, 150 mM KCl, 3 mM MgCl2, 0.01% Triton X-100, 500 ug/ml BSA, 20 U/ml SUPERase-In, 4 C; UNK is unkempt and MSI1 is Musashi-1; names of the RNAs are library labels; protein concentration not given here; high values mean tight binding.
In the case of B1, the binding signal stood at 0.35 enrichment R.
The value for B2 was 0.476 enrichment R; that for B3 was 0.548 enrichment R; that for B4 was 1.12 enrichment R.
The figure for B5 is 1.07 enrichment R; for B6 it is 1.03 enrichment R; for B7 it is 0.88 enrichment R.
In the case of B8, the binding signal was found to be 2.02 enrichment R.
The figure for B9 is 0.503 enrichment R; for B10 it is 0.878 enrichment R; for B11 it is 1.88 enrichment R.
The value for B12 was 1.63 enrichment R.
The value for B13 was 0.688 enrichment R; that for B14 was 0.976 enrichment R.
